Measurements as given in the supplement of paper PMC11417369.
± gives the standard deviation of the averaged measurements. The list shows a part of the results.

test system: PfAP2-EXP AP2 domain (GST-tagged); experiment: gcPBM binding intensity (ln(normalized median fluorescence intensity)); higher = stronger DNA binding
Outline: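 After 1 h on an Agilent 4 × 180k array of primer-extended double-stranded 36-bp intergenic genomic probes and negative controls, bound GST-tagged P. falciparum DNA-binding domains were detected with Alexa488 anti-GST antibody and scanned at 488 nm. The domains had been expressed in E. coli, and binding took place in 1× PBS with 1% milk, 0.2 mg/ml BSA, 0.5% salmon testes DNA and 0.03% Triton X-100. Binding intensity is the highest Masliner-normalised natural-log median intensity across replicate spots of either probe orientation.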

Point of comparison: AAAAAAAAGTTGTAAGTGCATGTATATAATAATATT, “gcPBM binding intensity (ln)” value 8.87 ± 0.21. Against it:
- TCTATTTATATGTATTGTACAATATAGATGTGTATT [XGTACX_site5646] — within error, 8.67 ± 0.42
- TTATATTTATATTTATGTACATATTTTGTGTGAAAA [XGTACX_site2367] — within error, 8.84 ± 0.4
- AGTGTATATAGAAACATACACACATATTAATTTTAC [CACACA_site3127] — lower, 8.3 ± 0.28
- TAGCTGTTCAAAAAATGTACATATATAATATATATA [XGTACX_site5842] — within error, 8.665 ± 0.078
- ATATATATGCATTCAAGTACAAAAATATATGTTAAA [XGTACX_site910] — within error, 8.73 ± 0.57
- TTCTATATATAATATTGTACTTAATTATTTTATTTT [XGTACX_site2701] — within error, 8.41 ± 0.28
- GTAATACACAGACACACACACATACACATATTTATA [CACACA_site7313] — within error, 8.72 ± 0.48
- AAATTAAAAATAATTACACACATAGAAAAATTATAT [CACACA_site2275] — within error, 8.51 ± 0.38
- ACATTATAATATTATTGTACTATATATATAATATAT [XGTACX_site2291] — within error, 8.42 ± 0.34
- ATATAATAACATAACACACACATGTATTTATAGGTG [CACACA_site359] — within error, 8.52 ± 0.4
- GATAATCAGAATGGGGTGCAAAGAAAAAAAAAAAAA — within error, 9.04 ± 0.19
- AAAAAAAAAAAAAAAACACACATATATATATAATAT [CACACA_site1159] — within error, 8.54 ± 0.3
- ATATTGAAATGTTAATAGAAATATATGGTTAAATTG [XGTACX_negctrl_site212] — within error, 8.34 ± 0.34
- ATAATAAGAAAAAAAAAAAAAAAAAAAAAAAAAAAA [TGCATGCA_negctrl_site377] — lower, 8.03 ± 0.4
- ATGTATATAAATAGGTGTACATATAAGGTGTTAAGC [XGTACX_site5465] — higher, 9.5 ± 0.41
- TACACAAACGTTATACGTACACAGGTTTTTCTTTTA [XGTACX_site5427] — within error, 8.54 ± 0.47
- TTCAATAGTAAGTATACACACATATAAATAAATAAA [CACACA_site7295] — within error, 8.76 ± 0.47
- AAAAAAAAAATATATTGTACAATATTGTAGCTATAT [XGTACX_site7180] — within error, 8.54 ± 0.38
- TTTTTGTTATTTTTAGTGCAGAAGAATAAATTTTAA — lower, 8.4 ± 0.16
- AAAATTTCTTATTTTGTACACACAATAAATATTCAC [CACACA_site8464] — within error, 8.45 ± 0.23
- GCAACCTTGTGCAAATGTACAAAAAAAAAAAAAAAA [XGTACX_site679] — lower, 8.09 ± 0.26
- TTTTTATTGTTGCTATATTTATAACAATTTATCATA [GTGCAC_negctrl_site75] — within error, 8.44 ± 0.35
- CAATTTATAAAGAAAACACACATATACATAAATACA [CACACA_site4829] — within error, 8.82 ± 0.45
- TATATATAATATAGTGCATGTAAAAAATAAACCATG [TGCATGCA_site932] — within error, 9.04 ± 0.28
- TATATATATGGACACACACACATATATATATATTTT [CACACA_site5409] — within error, 8.69 ± 0.31
- ACAACTATTCATCATAGTACACGCATGATATATATA [XGTACX_site1539] — within error, 8.62 ± 0.25
- AAAATTAATATCTTGGTGCATTTTTTAATATTATTA [GTGCAC_site9638] — within error, 8.59 ± 0.16
- TATAAATTAAAACATTGTACATTTTTATTATTATGT [XGTACX_site579] — lower, 8.29 ± 0.35
- TATCTTACTTTTTGCACACACTAATATTATTGTTTA [CACACA_site4990] — within error, 9.18 ± 0.38
- AACTTGTATATATACACACACACACTGTCTTTTTTT [CACACA_site1963] — within error, 9.04 ± 0.45
- TTCTTTAAAATGATATACGTTATAAATATATATATA [XGTACX_negctrl_site256] — higher, 9.71 ± 0.014
- AGAACTTAATGCTGCACACAAAAAAAAGGAAAAATA [CACACA_site1353] — within error, 8.51 ± 0.46
- TGATCACATAATAAATGTACAAAAAAAAATTAATAA [XGTACX_site5867] — within error, 8.48 ± 0.46
- TTTAGATAATTCATTACACACATGTATATATATATA [CACACA_site3483] — higher, 9.94 ± 0.33
- TAAGGAAGAAGAAAAAGTACTAAAGGTATAAATGCG [XGTACX_site2628] — within error, 9.02 ± 0.47
- TTTTATTTTTAAAATTGTACATTATTATTGTTATTT [XGTACX_site1439] — within error, 8.65 ± 0.64
- TGAATATTCATATGCACACAAATTAATATACATAAT [CACACA_site442] — within error, 8.34 ± 0.33
- TATTATAGTCCGACTTTTTAATTTCTTTATTGTTTT [CACACA_negctrl_site1381] — within error, 8.57 ± 0.36
- TTTTATGTTTTAAAATGTACGTGTCAATGAATAAGT [XGTACX_site6239] — within error, 9.14 ± 0.25
- AAATTTTAATTAGACTGTACACATTTTAGAATAATT [XGTACX_site4819] — lower, 8.3 ± 0.3
- TATTTGTTCTGATCCTTTTATTCAACTTTTTTTTTT [CACACA_negctrl_site978] — within error, 8.79 ± 0.59
- GGCTAAAAGTTGCACACACACAAAAAAAAAAAAAAA [CACACA_site7531] — within error, 8.47 ± 0.19
- ACCTTAATTATAATAACACACGAAAAGTGGACACAT [CACACA_site1750] — within error, 9.23 ± 0.44
- TATTATTATATATATAGTACATAAAATATAAAAAAA [XGTACX_site2060] — within error, 8.45 ± 0.42
